The results in this text go back to patent publication US20240382552A1, “COMPOSITION FOR PREVENTING, AMELIORATING OR TREATING SLEEP DISORDER OR INSOMNIA, CONTAINING EXTRACT OF ROASTED CITRUS BYPRODUCT AS ACTIVE INGREDIENT” (priority 2021, published 2024).

The experiment deals with mice to which a sleeping dose of pentobarbital (45 mg/kg, i.p.) was administered. As to the kind of experiment: Pentobarbital-induced sleep test. Conditions: vicenin 50 mg/kg p.o. (tested at 6.25, 12.5, 25 or 50 mg/kg).

Take `O=c1cc(-c2ccc(O)cc2)oc2c([C@@H]3O[C@H](CO)[C@@H](O)[C@H](O)[C@H]3O)c(O)c([C@@H]3O[C@H](CO)[C@@H](O)[C@H](O)[C@H]3O)c(O)c12` [vicenin]: the sleep duration-increasing effect result is recorded as “sleep duration-increasing effect” and the sleep latency-decreasing effect entry is “significant sleep latency-decreasing effect”.
